# Hit rate of the full screen: of about 150,000 compounds, about 540 (0.36%) showed an effect of 50% or more. Some of the results follow.
# System: Plasmodium falciparum
# Assay: Primary screen in NF54 nanoGlo assay, in single point, at 2uM, 72h; a lower Z score goes with more inhibition
# Type: functional, Erythrocyte
# Conditions: timepoint 72 hour
Compound,% Inhibition [%],Z score
C=CC[C@]1(CO)CCCN(CCC(=O)NCc2ccc(F)cc2)C1,-6,0.98
CC[C@@](C)(CO)NC(=O)c1ccc(Cl)c(C)c1,-10,0.87
COCC1(C2CCC2)CN(C(=O)N[C@@H](C)c2ccncc2OC)C1,16,-1.9
O=C(Cn1ncccc1=O)N1CCN(c2nccn3nc4c(c23)CCCC4)CC1,-13,1.7
O=C(c1ccc2c(c1)CCO2)N1CCC2(CC1)C[C@H](O)CNC2=O,1,-0.15
Nc1nnc(-c2ccc3c(c2)CCC3)o1,-19,1.75
Cc1ncccc1CN[C@@H](C)c1ccc(N2CCCC2=O)cc1,5,-0.68
CC(C)NC(=O)CCc1cc2n(n1)CCN(C(=O)c1ccc3c(c1)CCO3)C2,-13,1.93
CCN(C(=O)[C@H]1CCCN(S(=O)(=O)c2ccc3c(c2)NC(=O)CO3)C1)c1cccc(C)c1,11,-1.75
CCOC1(OCC)[C@@H](c2ccc(Cl)cc2)C(C#N)(C#N)C1(OCC)OCC,-27,3.16
c1ccc(-n2nncc2-c2nc(C3CC3)nn2-c2ccccn2)cc1,-4,0.65
C[C@@H](NC(=O)Nc1cnn(C)c1)c1cccc(Cl)c1,12,-1.7
O=C(CC[C@]1(Cc2cccc3ccccc23)CCC(=O)N1)NCCCN1CCCC1=O,-4,0.71
O=C(NC[C@H]1CCCN1c1ccccc1)c1ccccc1Br,-13,2.53
CCn1cc(C(=O)N[C@@H](C)c2nc(C)no2)c(=O)c2cc(F)c(F)c(F)c21,-13,1.66
CN(C)c1ccnc(NC(=O)NC[C@@H]2C[C@H](c3ccccc3)CO2)n1,0,0
COc1cc(OC)cc(-c2cccc(C(=O)NCC[C@H]3CCCN(C)C3)c2)c1,2,-0.26
CCn1ccc(C(=O)N2CC(N(Cc3cccnc3)S(C)(=O)=O)C2)n1,-4,0.78
COc1ccc(Nc2nc(-c3ccc(F)cc3)c3c(n2)-c2ccccc2OC3)cc1Cl,-5,0.66
Cc1c(Cl)cccc1C(=O)Nc1nc(C(C)C)nn1C,-8,1.02
CCO[C@H]1COC[C@@H]1NC(=O)c1ccc(NCc2sccc2C)cc1,-5,1.04
CCc1oc2ccccc2c1C(=O)N(C)Cc1cnccn1,9,-1.08
CCCN(CCC)CC(=O)c1c(N)n(CC)c(=O)[nH]c1=O,-15,1.32
CCOC(=O)[C@@H]1CN(c2nnc(-c3ccccn3)s2)Cc2ccccc21,-6,0.89
O=C([C@@H]1CCCO1)N1CCN(c2ccnc3cc(F)ccc23)CC1,-10,1.08
COC[C@H](NC(=O)Nc1ccnn1C1CCCCC1)c1ccnn1C,-5,0.85

Compound,% Inhibition [%],Z score
CN(CC(=O)NCc1cccs1)C(=O)CC(C)(C)c1ccccc1,-9,1.25
Cc1cc([C@@H](O)CCNC(=O)NC2CCOCC2)c(C)o1,-7,1.05
O=C(Nc1ccccc1C(=O)N1CCCCC1)[C@H]1CCCN(S(=O)(=O)c2cccs2)C1,3,-0.58
CC(C)=C(F)C(=O)N1CCOCC1C1CCCC1O (centres undefined),-10,0.83
CC(C)CCc1nc(N2CCCN(C(=O)CCC3CCCC3)CC2)c2cnn(-c3cccc(Cl)c3)c2n1,-3,0.43
CCc1coc(NC(=O)c2cc(F)ccc2F)n1,1,-0.21
CCn1ccnc1C(=O)N1CCc2c(CN3CCCC3)cccc21,-7,0.89
COc1nc(C)cc(C)c1CNCCC(=O)N1CCc2ccccc2C1,-8,1.45
O=C(Cn1nc(N2CCCCCC2)c2ccccc2c1=O)N1CCN(c2ccc(F)cc2)CC1,-7,0.98
COc1ccccc1C1CC1C(=O)N1CCN(CCO)CC1 (centres undefined),-12,1.03
CC(C)CN1CCN(C(=O)c2cnn(-c3ccc(=O)[nH]n3)c2C(F)(F)F)CC1,-7,0.99
Cc1nn(C)c(C)c1OCc1ncc(-c2cccs2)o1,-11,1.99
CC(C)N(CC(=O)N1CCN(c2ccc(-c3ccc(Cl)cc3Cl)nn2)CC1)C(=O)c1ccccc1F,-9,1.05
CC(=O)c1ccc(CNC(=O)[C@H](O)c2ccccc2)nc1C,-17,2.38
CCc1cc(N[C@H]2CCCN(CCO)C2=O)nc(C)n1,-19,2.11
CO[C@H]1CN[C@@H](C(=O)N(Cc2ccccc2)C2CC2)C1,1,-0.19
CN1C(=O)[C@@H](Cc2ccc(-c3cccc(C(F)(F)F)c3)o2)c2ccccc21,-12,1.03
CCn1nc(C)c(CCC(=O)N[C@H]2CCCc3c2[nH]c2c(Cl)cccc32)c1C,-1,0.19
CCN(Cc1ccoc1)C(=O)c1cc(Cl)c(O)c(OC)c1,-6,1.05
COc1ccc([C@@]2(C)NC(=O)N(CC(=O)N3CCc4ccccc43)C2=O)cc1OC,1,-0.14
Cc1ccc2nc(C(Cl)(Cl)Cl)nc(N)c2c1,-9,1.23
CCc1ccc([C@@H](NC(=O)CCNC(C)=O)C(C)C)cc1,0,-0.05
Cc1ccc(NC(=O)Cn2nc3c(N4CCN(c5ccccc5C)CC4)nccn3c2=O)c(Cl)c1,-18,1.72
C[C@@H](O)CNC(=O)Nc1nc2n(c1C(=O)OC(C)(C)C)CCOC2,1,-0.2
N#Cc1cnn2cc(CN[C@]3(CO)COc4ccccc4C3)cnc12,-14,1.37
Cc1c(Cl)cccc1S(=O)(=O)N1CC(S(=O)(=O)Cc2ccco2)C1,0,0.05
